In patent US12583848B2, “Isoxazole-3-carboxamide derivatives and their use for treatment of diseases caused by virus infection” (Collaborations Pharmaceuticals, Inc., priority 2019, dated 2026):
Read-outs that look alike come from different tables or passages of the source.

Tested on: coxsackievirus B3 97927 (CVB3 97927; I1207, I1092)
Assay: microbe, parasite or virus in culture
Assay type: cell-based
Details: read-out: IC50 against CVB3 97927 I1207, I1092

Compound | IC50 (Enterovirus B, HeLa, 48 h) | IC50 (HeLa cells, CPE inhibition, 48 hours, n.a. = not active)
Cc1cc(-c2noc(C(F)(F)F)n2)cc(C)c1OCCCc1cc(C(=O)NCc2ccccc2)no1 [Compound 1, N-benzyl-5-(3-{2,6-dimethyl-4-[5-(trifluoromethyl)-1,2,4-oxadiazol-3-yl]phenoxy}propyl)isoxazole-3-carboxamide] | 1400 nM | 
Cc1cc(-c2noc(C(F)(F)F)n2)ccc1OCCCc1cc(C(=O)N(C)C)no1 [Compound 8, N,N-dimethyl-5-(3-{2-methyl-4-[5-(trifluoromethyl)-1,2,4-oxadiazol-3-yl]phenoxy}propyl)isoxazole-3-carboxamide] | 1 nM | 
CN(C)C(=O)c1cc(CCCOc2ccc(-c3noc(C(F)(F)F)n3)cc2F)on1 [Compound 9, 5-(3-{2-fluoro-4-[5-(trifluoromethyl)-1,2,4-oxadiazol-3-yl]phenoxy}propyl)-N,N-dimethylisoxazole-3-carboxamide] | 19 nM | 
CN(C)C(=O)c1cc(CCCOc2ccc(-c3noc(C(F)(F)F)n3)cc2)on1 [Compound 11, N,N-dimethyl-5-(3-{4-[5-(trifluoromethyl)-1,2,4-oxadiazol-3-yl]phenoxy}propyl)isoxazole-3-carboxamide] | 7000 nM | 
Guanidine HCl [Gua- HCl, reference compound] |  | 711000 nM
